{
  "source": "PubChem BioAssay AID2546",
  "about": "(National Center for Advancing Translational Sciences (NCATS), 2010)",
  "note": "The campaign covered roughly 310,000 compounds. About 11,000 (3.5%) were called active. Inconclusive means that the source gave no clear call. Such entries were picked first, then a sample of the others. Calls follow the shape of the dose curve; as a rule, active = well fitted inhibition curve with a large enough effect; inconclusive = small, poorly fitted or top-dose-only effect, or effect the other way; inactive = flat fitted curve, though single readings scatter. No potency is given beside an inconclusive call; the fits are too rough. Potency is read from the fitted curve at half-maximal effect; tags tell the direction and shape of the fitted curve.",
  "data": [
    {"experiment": "VP16 counterscreen qHTS for inhibitors of ROR gamma transcriptional activity;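 also: Gal4-VP16 expression switched on by copper sulfate through the metallothionein promoter; nearly all actives have a fitted effect of over 50% in size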", "settings": "Drosophila S2 Gal4-VP16 UAS-luciferase, luminescence, 20 h; series mostly up to 53.6 µM", "values": [
      {"smiles": "Cc1noc(N)c1C(=O)Nc1ccc(C(C)(C)C)cc1", "Potency": "inconclusive [inhibitor, partial curve]"},
      {"smiles": "COCCNC(=S)N(CCc1c(C)[nH]c2ccc(F)cc12)Cc1ccc(C)cc1", "Potency": "inconclusive [inhibitor, single point]"},
      {"smiles": "O=C(NC(=S)N1CCN(c2ccc(O)cc2)CC1)c1cccs1", "Potency": "active: 2.82 µM"},
      {"smiles": "COc1ccc(NC(=O)c2ccc(-c3ccc(-c4noc(C)n4)cc3C)cc2)cc1N1CCN(C)CC1", "Potency": "active: 31.6 µM"},
      {"smiles": "O=c1c(Br)c(Br)cnn1-c1ccccc1", "Potency": "active: 5.01 µM"},
      {"smiles": "N#Cc1ccccc1OCc1nnc(-c2ccccc2Br)o1", "Potency": "inconclusive [inhibitor, full curve, poor fit]"},
      {"smiles": "COc1ccc(Cn2nnnc2C(c2cc3cccc(C)c3[nH]c2=O)N2CCOCC2)cc1", "note": "(stereo unspecified)", "Potency": "inactive"},
      {"smiles": "O=C(c1ccc(Cl)cc1)C1CCN(C(=O)c2ccccc2)CC1", "Potency": "inactive"},
      {"smiles": "CC(C)(C)c1ccc(C(=O)Nc2ccc(Oc3cccnc3)nc2)cc1", "Potency": "inconclusive [inhibitor, single point]"},
      {"smiles": "COc1ccc(NS(=O)(=O)c2cc3c(cc2C)N(C(C)=O)CCO3)cc1OC", "Potency": "inactive"},
      {"smiles": "Cc1cc(OCc2cc(C(=O)N(Cc3nccn3C)C(C)C)no2)cc(C)c1Cl", "Potency": "inactive"},
      {"smiles": "Cc1ccc(NC(=O)OCc2cccs2)cc1", "Potency": "inactive"},
      {"smiles": "COc1ccc(Br)cc1/C(C)=N/NC1=NCCN1", "Potency": "active: 12.6 µM"},
      {"smiles": "COc1cccc(C(=O)Nc2ccc(C(=O)c3ccccc3)cc2)c1", "Potency": "inconclusive [activator, partial curve]"},
      {"smiles": "N#Cc1ccc(-c2ccc(OCC(=O)Nc3cccnc3)cc2)cc1", "Potency": "inactive"},
      {"smiles": "CCOC(CNC(=O)c1ccc(N2CCc3ccccc32)c([N+](=O)[O-])c1)OCC", "Potency": "inconclusive [inhibitor, single point]"},
      {"smiles": "Cc1ccc(CNCCCSc2nc(C)cc(C)n2)cc1", "Potency": "active: 2 µM"},
      {"smiles": "CCOC(=O)C(C)N1C(=O)S/C(=C/c2cc(C)n(-c3ccccn3)c2C)C1=O", "note": "(stereo unspecified)", "Potency": "inconclusive [inhibitor, single point]"},
      {"smiles": "COC(=O)[C@@]1(Cc2ccc(F)cc2)[C@H]2c3cc(C(=O)N(C)C)n(Cc4ccc(C)o4)c3C[C@H]2CN1C(=O)c1ccccc1", "Potency": "inconclusive [inhibitor, single point]"},
      {"smiles": "COc1cccc(OCc2ccc(Cl)cc2)c1C#N", "Potency": "inconclusive [inhibitor, single point]"},
      {"smiles": "CCCOC(=O)CSc1nnc(-c2ccc(Cl)cc2Cl)o1", "Potency": "inconclusive [inhibitor, single point]"},
      {"smiles": "CCOC(=O)c1c(NC(=O)CSc2nncs2)sc(C)c1-c1ccccc1", "Potency": "active: 0.447 µM"},
      {"smiles": "Cc1ccccc1NC(=O)Cn1nnc2sc3c(c2c1=O)CC(C)(C)OC3", "Potency": "inactive"},
      {"smiles": "O=C(CSC1=NS(=O)(=O)c2ccccc21)Nc1ccccc1", "Potency": "active: 20 µM"},
      {"smiles": "O=C(c1ccc2ccccc2c1)C1CCCN(S(=O)(=O)c2cccnc2)C1", "note": "(stereo unspecified)", "Potency": "inconclusive [inhibitor, single point]"},
      {"smiles": "Cc1ccc(S(=O)(=O)N2CCN(c3cc4c(cc3[N+](=O)[O-])n(C)c(=O)n4C)CC2)cc1", "Potency": "inactive"},
      {"smiles": "CCOC(=O)c1cnc(-c2ccccc2)nc1N", "Potency": "inconclusive [inhibitor, single point]"},
      {"smiles": "Cc1ccc2nc(-c3ccc(NC(=O)CSc4ccccc4)cc3)[nH]c2c1", "Potency": "inconclusive [inhibitor, single point]"},
      {"smiles": "CCOc1ccccc1NC(=O)C(=O)CC(=O)c1ccc(OC)cc1", "Potency": "active: 3.98 µM"},
      {"smiles": "Cc1nc2ccccc2cc1C(=O)N/N=C/c1cccs1", "Potency": "inconclusive [inhibitor, single point]"},
      {"smiles": "Cc1ccc(-c2nc(-c3cccnc3)sc2CC(=O)Nc2ccc3nc(C)sc3c2)cc1", "Potency": "inactive"},
      {"smiles": "O=C(CSc1ccc(C(F)(F)F)cc1[N+](=O)[O-])Nc1ccccc1", "Potency": "inconclusive [inhibitor, single point]"},
      {"smiles": "Cc1cc(C(=O)COC(=O)Cc2n[nH]c(=O)c3ccccc23)c(C)n1-c1ccc2c(c1)OCO2", "Potency": "active: 17.8 µM"},
      {"smiles": "Nc1cccc(-c2nc3ccccc3s2)c1", "Potency": "inactive"},
      {"smiles": "O=C1/C(=C/c2cccs2)SC(=S)N1CCCC(=O)N(CCO)c1ccccc1", "Potency": "inconclusive [inhibitor, partial curve]"},
      {"smiles": "COc1ccc(C/C(C)=N/NC(=S)Nc2ccc(Cl)cc2)cc1", "Potency": "inconclusive [inhibitor, single point]"},
      {"smiles": "COc1ccc(-c2cc(C)no2)cc1S(=O)(=O)N(C)c1ccc(C)c(C)c1", "Potency": "inactive"},
      {"smiles": "O=C(Cc1ccc(S(=O)(=O)N2CCOCC2)s1)N1CCN(c2cccc(C(F)(F)F)c2)CC1", "Potency": "inconclusive [inhibitor, single point]"},
      {"smiles": "C/C(=N\\NC(=O)c1n[nH]c2c1CCC2)c1ccco1", "Potency": "active: 12.6 µM"},
      {"smiles": "COc1cc2c3nnc(-c4ccc(F)cc4)c-3cn(Cc3cccc(F)c3)c2cc1OC", "Potency": "inactive"},
      {"smiles": "N#Cc1cccc(Nc2c3c(nc4ccccc24)CCC3)c1", "Potency": "inactive"},
      {"smiles": "Cc1c(Cl)cccc1NC(=S)NCCc1ccc(Cl)cc1", "Potency": "active: 3.16 µM"},
      {"smiles": "CCc1c(OC(C)=O)c2ccccc2n(C)c1=O", "Potency": "inactive"},
      {"smiles": "O=C(Cc1ccc(Nc2nc3ccc(Br)cc3[nH]2)cc1)NCCc1cccs1", "Potency": "inconclusive [inhibitor, single point]"},
      {"smiles": "CCN1CCc2c(sc(NC(=O)Nc3ccc(Cl)c(Cl)c3)c2C(N)=O)C1", "Potency": "inactive"},
      {"smiles": "Oc1ccccc1/C=N/NC(=S)NCCc1ccccc1", "Potency": "active: 22.4 µM"},
      {"smiles": "Cc1cc(C)c(-c2cc(NC(=O)CSc3nncn3C)n(-c3ccccc3)n2)cc1C", "Potency": "inactive"},
      {"smiles": "Cc1cc(F)ccc1NS(=O)(=O)c1cccc2nsnc12", "Potency": "inconclusive [inhibitor, full curve, poor fit]"},
      {"smiles": "CCc1ccc(CNC(=O)C2CCN(S(=O)(=O)N3CCCC3)CC2)cc1", "Potency": "inactive"},
      {"smiles": "CCc1cc(C(=O)N2CCCC(C(=O)c3cccc4ccccc34)C2)n(C)n1", "note": "(stereo unspecified)", "Potency": "inconclusive [inhibitor, single point]"},
      {"smiles": "O=C(COc1ccccc1)NC(=S)Nc1ccc(Br)cn1", "Potency": "inconclusive [inhibitor, single point]"},
      {"smiles": "COc1ccc(-c2csc(=Nc3ccccc3)n2CCO)cc1", "Potency": "inactive"},
      {"smiles": "Cc1ccc(NC(=O)Cn2sc3nc(C)cc(C)c3c2=O)c(Cl)c1", "Potency": "inconclusive [inhibitor, single point]"},
      {"smiles": "Cc1cc(NC(=O)CSc2ccc(-c3ccc(Br)cc3)nn2)no1", "Potency": "inconclusive [inhibitor, single point]"},
      {"smiles": "Cc1ccc(C(=O)NC(=S)NNC(=O)c2ccccc2)cc1", "Potency": "active: 20 µM"},
      {"smiles": "Cc1ccc(/C=N/NC(=O)c2c(-c3ccccc3)noc2C)o1", "Potency": "inconclusive [inhibitor, single point]"},
      {"smiles": "S=C(Cc1cccnc1)N1CCOCC1", "Potency": "inactive"},
      {"smiles": "Cc1cc(C)c2c(n1)nn1c(-n3ccnc3)cc(C)nc21", "Potency": "active: 15.8 µM"},
      {"smiles": "Cc1c(C(N)=O)sc2ncn(CCOc3ccccc3)c(=O)c12", "Potency": "inconclusive [activator, single point]"},
      {"smiles": "CC(=O)c1cccc(CN2CCC(C(=O)Nc3ccc(-c4cccc(C)c4)cc3)CC2)c1", "Potency": "inconclusive [inhibitor, single point]"},
      {"smiles": "CS/C(=C/[N+](=O)[O-])Nc1cccc2c1C(C)CC2(C)C", "note": "(stereo unspecified)", "Potency": "inconclusive [activator, single point]"},
      {"smiles": "Brc1ccc2nc3c(n2c1)CCCC3", "Potency": "inconclusive [inhibitor, single point]"},
      {"smiles": "O=C(NCCC(=O)N1CCCC1)c1ccccc1Cl", "Potency": "inactive"},
      {"smiles": "O=C(Nc1ccc(O)c(C(=O)O)c1)c1ccc2c(c1)C(=O)N(CC1CCCO1)C2=O", "note": "(stereo unspecified)", "Potency": "inconclusive [inhibitor, partial curve]"},
      {"smiles": "Cc1ccc(C)c(CSc2nnc(-c3cccs3)n2Cc2ccco2)c1", "Potency": "inactive"},
      {"smiles": "O=C(c1cn(-c2ccccc2)nc1-c1cccs1)N(CCO)Cc1ccccc1", "Potency": "inconclusive [activator, single point]"},
      {"smiles": "N[C@@H](CO)c1nnc([C@H](Cc2ccc(O)cc2)NC(=O)C2CCNCC2)o1", "Potency": "inactive"},
      {"smiles": "O=[N+]([O-])c1cccc(/C([O-])=C(/C(=S)Nc2ccccc2)[n+]2ccccc2)c1", "Potency": "inconclusive [activator, single point]"},
      {"smiles": "O=c1c2ccccc2c(C=NCc2ccccn2)c(O)n1-c1ccccc1Cl", "Potency": "inconclusive [inhibitor, single point]"},
      {"smiles": "Cc1ccc(S(=O)(=O)Nc2ccc3nc(-c4cccn4C)[nH]c3c2)cc1", "Potency": "inconclusive [inhibitor, single point]"},
      {"smiles": "COc1ccc(C(=O)N/C(=C\\c2cn(S(=O)(=O)N(C)C)c3ccccc23)C(=O)N2CCN(C)CC2)cc1", "Potency": "inactive"},
      {"smiles": "O=C(NNC(=O)c1cc(OCC(F)(F)F)ccc1OCC(F)(F)F)c1ccc(Cl)c(Cl)c1", "Potency": "inconclusive [inhibitor, single point]"},
      {"smiles": "CC(C)c1cc2c(c(O)c1O)[C@@]13CCCC(C)(C)C1CC2OC3=O", "note": "(stereo partly specified)", "Potency": "inconclusive [inhibitor, single point]"},
      {"smiles": "CN(C(=S)Nc1ccc(Oc2ccccc2)cc1)C1CCCCC1", "Potency": "inconclusive [inhibitor, single point]"},
      {"smiles": "O=C(c1ccccc1)c1ccc(Cn2cc(CCCO)nn2)cc1", "Potency": "active: 12.6 µM"},
      {"smiles": "O=C(CCN1C(=O)/C(=C/c2ccc(Cl)cc2)SC1=S)NCCCn1ccnc1", "Potency": "inconclusive [inhibitor, single point]"}
    ]}
  ]
}
